PubChem BioAssay AID2006 (Sanford-Burnham Center for Chemical Genomics, 2009)
Out of some 290,000 compounds screened, about 1,000 (0.34%) were called active. Inconclusive means that the source gave no clear call. Such entries were picked first, then a sample of the others. Rule as the data show it: active = inhibition above about 50% (passing the limit was not always enough); inconclusive = no clear call, values can overlap the other calls.

The compounds below were run against SUMO-conjugating enzyme UBC9 (Homo sapiens) (UniProt P63279) (assay: blockers of SAE1/SAE2–UBC9 SUMO transfer – biochemical, HTRF, uHTS, primary screen (AID 2006)). Details: HTRF SUMOylation assay, SAE1/SAE2 + UBC9, in vitro; at 35 µM; stronger effect = higher value.
UniProt P63279, sequence (P63279 whole entry, looked up): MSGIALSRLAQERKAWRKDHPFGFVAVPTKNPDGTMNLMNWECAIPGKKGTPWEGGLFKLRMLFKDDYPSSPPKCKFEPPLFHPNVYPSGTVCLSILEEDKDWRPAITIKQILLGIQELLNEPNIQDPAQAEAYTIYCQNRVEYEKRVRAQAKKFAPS

inhibition, inactive:
CC(C)CC(=O)Nc1cc2nn(-c3ccccc3)nc2cc1Cl 10%
CCOC(=O)c1ccccc1NC(=O)c1ccc2nc[nH]c2c1 -8.7%
Cc1ccccc1NC(=O)c1c(Cl)nc(C)c(Cl)c1C -2.2%
COc1cc(/C=N/N2C(=O)CSC2=S)cc(Br)c1O 34.2%
COc1ccc(C(=O)Nc2cc(C)on2)cc1S(=O)(=O)N1CC(c2ccccc2)CC1=O (stereo not drawn) -17.1%
c1ccc(-c2nc(N3CCN(c4ccccc4)CC3)nc(-n3ccnc3)n2)cc1 -25.2%

inhibition, active:
O=C(Nc1ccc(F)cc1)Oc1ccc[nH]c1=O 98.6%
Cc1ccc(C(=O)O)cc1-c1ccc(/C=C2\SC(=O)N(CC(=O)Nc3ccccc3)C2=O)o1 84.9%
COCCn1c(N)c(C(=O)NCC2CCCO2)c2nc3ccccc3nc21 (stereo not drawn) 90.7%
CCc1c(C)c2cc(Cl)c(O)c(CN(C)C)c2oc1=O 51.1%

inhibition, inconclusive:
O=C(Nc1ccccc1-c1nc2ccccc2s1)c1ccco1 66.3%
O=C(O)C[C@@H]1C(=O)O[C@@H]2C(COC(=O)c3cc(O)c(O)c(O)c3)O[C@@H](OC(=O)c3cc(O)c(O)c(O)c3)[C@@H](OC(=O)c3cc(O)c(O)c4c3[C@H]1[C@H](O)C(=O)O4)[C@H]2OC(=O)c1cc(O)c(O)c(O)c1 (stereo partly drawn) 78.5%
Cc1cc(Nc2ccc(F)c(F)c2)nc(-c2ccccc2O)n1 54.5%
O=c1cc2[nH]c3ccccc3c(=O)n2nc1-c1ccccc1 51.6%
Cc1c(O)ccc2c(CC(=O)N[C@@H](Cc3ccccc3)C(=O)O)cc(=O)oc12 57.9%
O=C(COc1ccccc1C(=O)N/N=C\c1ccc(O)c(O)c1)N/N=C/c1ccc(O)c(O)c1 56.6%
Cc1ccc(O)c(C2=Nc3ccccc3N=C(c3ccco3)C2)c1 53%
O=C(O)c1ccc(NC2=C/C(=N/S(=O)(=O)c3ccccc3)c3ccccc3C2=O)cc1 89.4%
Oc1ccc(/C=N\Nc2cc(N3CCOCC3)nc(N3CCOCC3)n2)c(O)c1 82.5%
O=C(Nc1ccc(Cl)cc1-c1nc2ccccc2s1)c1ccco1 64.6%
O=c1cc2oc3cc(O)c(O)cc3c(-c3ccccc3[N+](=O)[O-])c-2cc1O 62.3%
COc1ccc(NC(=O)CC2Nc3cccc4cccc(c34)NC2=O)cc1 (stereo not drawn) 94.5%
Cc1c(O)c(CN2CCCCC2)cc2c3c(c(=O)oc12)CCC3 59%
